# ± gives the standard deviation of the averaged measurements. The list shows a part of the results.
# System: PfAP2-EXP AP2 domain (GST-tagged)
# Assay: gcPBM binding intensity (ln(normalized median fluorescence intensity)); higher = stronger DNA binding
# Method in brief: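 GST-fused DNA-binding domains of P. falciparum, expressed in E. coli, were applied at about 25 μg on average for 1 h to an Agilent 4 × 180k array of primer-extended double-stranded 36-bp intergenic genomic probes and negative controls. Binding intensity is the highest Masliner-normalised natural-log median intensity across replicate spots of either probe orientation, measured with Alexa488 anti-GST antibody and a 488 nm scan.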
row,Sequence,gcPBM binding intensity (ln)
1,ATATATATAAATACAACACACATGTAATATATAAAT [CACACA_site5766],8.7 ± 0.39
2,TAAATACTTCGTAAAACACACAAGTAGAAAAAAAAA [CACACA_site360],8.56 ± 0.47
3,ATTAATTATATATATACACACACATACACCCAAATA [CACACA_site9126],9.11 ± 0.56
4,ATAATTAGTTCAATTTTTTTTTTTTTTTTTTTTTTT [CACACA_negctrl_site1371],8.96 ± 0.13
5,AAAAATATAATATATGCACACATACATACATATATA [CACACA_site7915],8.27 ± 0.37
6,AAACAAAACAAAACATGTACACATTATATATATATA [XGTACX_site3374],9.94 ± 0.014
7,TTATTTATTTATTGTTGTACACAAAATGATTCTTAA [XGTACX_site6480],8.7 ± 0.2
8,AAAAAAAAATCAAAATGTACTTATTTTTATAATAAT [XGTACX_site4712],8.07 ± 0.45
9,TAATTATGCCAACACACACACACACCCAACTAAAAA [CACACA_site8823],8.63 ± 0.57
10,AACATCAATTTATTTTCTTACATTATACGATTCATG [CACACA_negctrl_site1300],8.5 ± 0.47
11,AAACATAAGAAACACACACACATATATATATATATA [CACACA_site3642],10.1 ± 0.35
12,ATGATGTGCAAGAGTAGTACACAATTTTGGGTTTAT [XGTACX_site501],8.76 ± 0.39
13,ATTCTTATAACAAGAAGTACAAATATATGTATATAT [XGTACX_site4528],8.46 ± 0.35
14,TTTTTTTTTAAGATGAAGATCAATATATAAATATAT [CACACA_negctrl_site1538],7.96 ± 0.47
15,TTTTCTCTCAAAAAATGTACATAATATATATATTTT [XGTACX_site4861],8.72 ± 0.47
16,AGAATATCAAAATAAAGTACATTTATTATATATATG [XGTACX_site7100],8.37 ± 0.46
17,AAAAAAAAAAAACATACACACATACATACCTATATA [CACACA_site6575],8.34 ± 0.58
18,CGTATATATAAATACACACACATATATATCTGTAAA [CACACA_site4272],8.45 ± 0.5
19,TTAATTTATTTATGCACACATATATAATTACCCATA [CACACA_site682],8.46 ± 0.14
20,AAAAAAAAAAAAAAGCGTACAAATAAAATATATTTA [XGTACX_site7195],8.52 ± 0.49
21,AATTAAATTACTTATACACACATAAAATGGGTGTAT [CACACA_site4703],8.05 ± 0.45
22,TAAATGTCCTTATTTGCACACACACCCATAAGAAAT [CACACA_site3185],8.94 ± 0.11
23,CCTTTTTTGTTTTATGCACACCATATAACCAAGGCT [CACACA_site7893],8.98 ± 0.18

row,Sequence,gcPBM binding intensity (ln)
1,ATGTAATGAAACATTGCACACATATAATAATATAAT [CACACA_site8402],8.45 ± 0.46
2,TATATATAAAAATATACACACACAAATGTATATATA [CACACA_site7956],8.21 ± 0.23
3,TTTTTATATGCGTATTGTACATTATACATATATATA [XGTACX_site6786],8.57 ± 0.28
4,TTGTTTTTAATATCGGTGCAATGGAAAGAAAAGAAG [GTGCAC_site9494],9.22 ± 0.38
5,TATACATATGAAAATACACACATACATACAGATATA [CACACA_site5002],8.65 ± 0.38
6,AAAAAAAATATAATATGTACATATCTATATATCAAC [XGTACX_site4881],8.55 ± 0.38
7,AGAAAAATTATTTTGCGTACATATTTACAATAAAAA [XGTACX_site2144],8.38 ± 0.29
8,TTTTTTTTTTTAAATTCACACAATATATAAATATTG [CACACA_site5201],8.21 ± 0.33
9,AACAAATATATATGTAGTACATGTTGTAGATAATTT [XGTACX_site24],8.73 ± 0.3
10,AAAAATAATCATTAGGTGCAAAAAATATATATATAT [GTGCAC_site9631],9.93 ± 0.11
11,TACGTAAAATAATTGAGTACATAATTATATATATAT [XGTACX_site5361],9.76 ± 0.11
12,TAAAGCATATTATAAACACACACTGTATAAAGATAT [CACACA_site296],8.71 ± 0.55
13,GTACATTATTTATATACACACAAAGAAAAATATACA [CACACA_site3452],8.68 ± 0.39
14,TTTAAAATATATAGTACACACGTGAACACAAATACA [CACACA_site4392],8.82 ± 0.36
15,TTTTTCAGAAAAGAAACACACATATTTATATTTATA [CACACA_site7167],8.2 ± 0.4
16,TATATGTATATATATTAACACACAAAAAAAAAAAAA [CACACA_site8534],8.41 ± 0.58
17,TAAACAAATAAATAAACACACAATATCTGTATTTAT [CACACA_site5978],8.17 ± 0.27
18,TAACCTATAATATTCACACACATATAAATATTATAG [CACACA_site6592],8.5 ± 0.4
19,ATTAAATCGATATATACACACATGTTTGGTATATTC [CACACA_site7285],8.6 ± 0.34
20,TTAAAATAAAGTAGTGGTACAAAAAAAAAAAAAAAA [XGTACX_site6322],8.16 ± 0.26
21,TTTTACTTAAAACACACACACACAAAAAAAAAAAAA [CACACA_site947],8.41 ± 0.49
22,AGTAATAGTTTGTGCACACTCAAGTATATCATATAT [CACACA_site4034],8.97 ± 0.17
23,TATATATTTAATTTCACACATATATATAATTATTAT [CACACA_site4936],8.28 ± 0.27

row,Sequence,gcPBM binding intensity (ln)
1,AGATAAAAAAAGTACACACACACATATATTTATATA [CACACA_site7437],8.72 ± 0.54
2,TTTTTTATTTTAAAAACATGCATAAAATATAATAGT [TGCATGCA_site762],8.94 ± 0.42
3,ATATTATATATAAAATGTACATTTAAAAATATTATA [XGTACX_site889],8.46 ± 0.45
4,ATACACACTTAAAAAAGTACTTAACTACATGAATTG [XGTACX_site1203],8.46 ± 0.49
5,TAATCATAACTTGATACGCACACGTTATATAAATAA [CACACA_site1579],8.37 ± 0.4
6,TATTTATTTATGGACACACATACAAATCTTCCAGAC [CACACA_site942],8.7 ± 0.39
7,TTGTTTTCTTATTATTACTACAATACTTAAGTCAGA [TGCATGCA_negctrl_site184],8.69 ± 0.33
8,TTTTTTATTTTGTGCACACACATAAAAATATATATA [CACACA_site761],8.97 ± 0.092
9,TTTTTTTTTTTTTAAACATGCATAATAAATATAATA [TGCATGCA_site265],8.42 ± 0.31
10,TTTTGTTGGATACAAAAATTACAAATTATTTAAAAA [TGCATGCA_negctrl_site532],8.12 ± 0.42
11,GAATACATAATAACATGTACACACATTCTTCTATAA [XGTACX_site8725],8.6 ± 0.32
12,TATATATATAGAAATGCATGTTAATAAAAGTTATAA [TGCATGCA_site947],9.11 ± 0.12
13,TATCATAAAAAATATACACACAAAGGATATTTATAT [CACACA_site6841],8.54 ± 0.35
14,TATGAACACCAACACACACACAAAAAAAAAAAAAAA [CACACA_site2013],8.18 ± 0.6
15,ATAATTATTCTTATGGTGCACTGAATATACATGTTG [GTGCAC_site9760],9.23 ± 0.071
16,CAAAAATATATTTTTTGTACACAAAAAAAAAATAAA [XGTACX_site5229],8.43 ± 0.54
17,ATAGCACATTTTTAAGCACACGTTTATTATATATAT [CACACA_site6084],8.91 ± 0.17
18,AAATACATATCATGTAGTACATATATATGTAGGTTA [XGTACX_site5392],8.54 ± 0.4
19,AAAACTATTAAATGTAGTACATAATTATTGAAATAA [XGTACX_site8716],8.52 ± 0.37
20,CTTATATATTGGGATAGTACTTTTAACTAAATAGAA [XGTACX_site5900],8.35 ± 0.29
21,TGTTGTATTTTTACAACACACATTTAATCCATTTAA [CACACA_site1507],8.18 ± 0.35
22,ACTTTACGAATTAAGAGTACTTATTTAAGGAACACT [XGTACX_site7919],8.52 ± 0.37
23,TTTTTTTGCTCTTTTTATATATATATATATATATAT [GTGCAC_negctrl_site70],10.2 ± 0.46

row,Sequence,gcPBM binding intensity (ln)
1,TTTTTATTGAGATACTTATATAATTTTATGAATAAA [XGTACX_negctrl_site311],8.05 ± 0.34
2,TTTGAAAAGTTGAAATGTACACATTTACACATATTT [XGTACX_site1641],8.32 ± 0.18
3,ATCAACATTATGGTTAGTACTTAGTGAATTGTTAAT [XGTACX_site4926],8.46 ± 0.45
4,TTATACACCTTTCATTGTACATATAATTTATATTCT [XGTACX_site8685],8.95 ± 0.33
5,GTGTAATATATTTTTCGTACATATTATATATATATA [XGTACX_site1675],9.8 ± 0.37
6,TCTTCTAATTTACCTACACACAGGAGATATATAAAT [CACACA_site6276],8.66 ± 0.48
7,GTTCATAAATTAAACACACACACACCCCTGGATACC [CACACA_site3331],9.41 ± 0.59
8,TAATTAATTTATTAGTTGCACTGTACCATTAGAGTA,8.54 ± 0.26
9,TATATATATATATATTGTACAAAATATTTATATGTT [XGTACX_site436],10.1 ± 0.37
10,TATATTACTTTGTGTTGTACGGAAATATATATATAT [XGTACX_site4309],9.7 ± 0.28
11,AATATTCAATATATATATATATATAATATTAATATA [GTGCAC_negctrl_site571],8.21 ± 0.34
12,AAGGATTTTTTATACACACACTAACTAATGTATATA [CACACA_site7163],8.27 ± 0.35
13,TAATACCATAACAAGTGTACATAAATAATTATTGTA [XGTACX_site4949],8.8 ± 0.44
14,ATATTTTATTTAATTACACACAATATTGCAATTTGT [CACACA_site669],8.88 ± 0.49
15,TATACATAGAAACACACACACATATATATATATATA [CACACA_site2248],10.1 ± 0.29
16,GTTTATTCTTTTTATACACACCTTATTTGATTAACA [CACACA_site4567],8.82 ± 0.4
17,TTACTACTATATTATACACACATATATATATATATA [CACACA_site2621],10.3 ± 0.23
18,TGTGAATAAATAAGCACACATAAACACATATATAAA [CACACA_site6114],8.89 ± 0.33
19,TTAAAAGAAAAAATATGTACATATATTATATATATC [XGTACX_site7009],8.63 ± 0.29
20,TTCTAATATTTTTGCACACTAAACAATAAATTTCCT [CACACA_site3944],8.885 ± 0.078

# Source: the supplement of paper PMC11417369
